From the supplement of paper PMC12217912
The list shows a part of the results. Sequences were assembled here from the parent chain. Values near 0.05 are background.

B1: TEV protease; numbered along this chain (parent)
chain: MGESLFKGPRDYNPISSSICHLTNESDGHTTSLYGIGFGPFIITNKHLFRRNNGTLVVQSLHGVFKVKDTTTLQQHLVDGRDMIIIRMPKDFPPFPQKLKFREPQREERICLVTTNFQTKSMSSMVSDTSCTFPSGDGIFWKHWIQTKDGQCGSPLVSTRDGFIVGIHSASNFTNTNNYFTSVPKNFMELLTNQEAQQWVSGWRLNADSVLWGGHKVFMVKPEEPFQPVKEATQL

Variants of: B1
Assay: raw area under fraction-flipped curve 0-4 h after induction (AUC4h, not background-subtracted), DNA-recorder readout of cleavage of the substrate (dimensionless); higher = more cleavage of the substrate by the protease variant
Conditions: temperature: 34 °C; time window: 0-4 h after rhamnose induction
Protocol: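 In vivo DNA recorder in E. coli TOP10(DE3) ΔrhaA at 34 °C. Each TEVp single-site mutant (parent TEVp 0) is paired with a single-site variant of the 7-mer TEVs (canonical ENLYFQ|S). The substrate sits between flexible linkers in a Bxb1-sfGFP-TEVs-SsrA fusion, so cleavage stabilises Bxb1 and speeds flipping of a recombination array, read by NGS. The value is the raw area under the fraction-flipped curve over 0-4 h after rhamnose induction (AUC4h), with ≥20 reads per time point. It is not background-subtracted; inactive controls average about 0.047.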
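Further: Bxb1 expression induced with 0.2% (w/v) L-rhamnose at OD600 near 0.5, cultures sampled hourly, flipped fraction per protease–substrate barcode pair counted by paired-end Illumina sequencing.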

Variant | area with substrate CNLYFQS | area with substrate FNLYFQS | area with substrate HNLYFQS | area with substrate INLYFQS | area with substrate KNLYFQS | area with substrate LNLYFQS | area with substrate MNLYFQS | area with substrate WNLYFQS | area with substrate YNLYFQS | area with substrate PNLYFQS | area with substrate SNLYFQS | area with substrate TNLYFQS | area with substrate GNLYFQS | area with substrate NNLYFQS | area with substrate QNLYFQS | area with substrate VNLYFQS | area with substrate RNLYFQS
N116H | 0.0712 | 0.0719 | 0.0596 | 0.113 | 0.0672 | 0.0674 | 0.0663 | 0.0589 | 0.0735 |  |  |  |  |  |  |  | 
T119V | 0.0695 | 0.061 | 0.0735 | 0.065 | 0.0642 |  |  |  |  | 0.0693 | 0.0557 | 0.0713 |  |  |  |  | 
T55D | 0.036 | 0.0513 | 0.0544 |  |  |  | 0.0595 |  | 0.057 |  | 0.0563 | 0.0804 | 0.049 |  |  |  | 
E223S | 0.0718 |  | 0.0657 | 0.0631 | 0.0597 |  | 0.0663 | 0.0664 | 0.0676 | 0.0768 |  | 0.0604 | 0.0638 | 0.0834 | 0.0714 | 0.062 | 
H47Q | 0.0621 | 0.0517 | 0.0618 |  | 0.0927 | 0.0616 |  | 0.0653 |  | 0.0646 | 0.0577 | 0.0577 | 0.0664 |  |  | 0.0646 | 
S17T | 0.0641 | 0.0801 | 0.0805 | 0.0712 | 0.0616 |  | 0.0742 | 0.0583 |  | 0.0685 |  | 0.0488 | 0.0841 | 0.0739 |  | 0.0507 | 
E25F | 0.0711 |  | 0.0696 |  |  | 0.0599 |  | 0.0529 | 0.0617 |  |  |  | 0.061 | 0.057 |  | 0.0739 | 
Q74A | 0.0632 | 0.0589 | 0.0638 |  | 0.0703 | 0.0567 | 0.0265 | 0.0694 | 0.0552 |  |  |  |  |  | 0.0715 | 0.0547 | 
Q74Y | 0.0748 |  |  | 0.0628 |  |  | 0.0525 | 0.0521 |  | 0.0711 | 0.0696 |  |  | 0.0684 |  | 0.0515 | 
A207H | 0.0733 | 0.063 | 0.0642 |  | 0.0589 | 0.0721 | 0.0501 |  | 0.0569 | 0.0407 | 0.0673 | 0.0775 |  |  |  | 0.0628 | 
E189F | 0.0584 |  | 0.0595 | 0.0594 | 0.0538 | 0.0634 | 0.0763 | 0.0613 |  |  | 0.0747 | 0.0499 |  | 0.0337 |  | 0.0488 | 0.0624
F173C | 0.0634 | 0.0566 | 0.0567 | 0.0465 | 0.0654 |  |  | 0.0601 | 0.0427 | 0.0679 |  | 0.0645 |  | 0.0621 |  |  | 0.0563
K230H | 0.0787 | 0.0676 | 0.0727 | 0.0707 | 0.0574 | 0.0909 | 0.0679 | 0.0657 |  |  | 0.0937 | 0.0591 | 0.0583 |  |  | 0.0802 | 
F65H | 0.06 |  | 0.0605 | 0.064 | 0.0638 |  |  |  | 0.0786 | 0.0619 |  | 0.0601 | 0.094 | 0.0662 | 0.0581 |  | 
F65D | 0.0747 |  | 0.0601 | 0.0554 |  | 0.0606 |  |  | 0.0557 |  |  | 0.0564 |  |  |  | 0.0795 | 
P94R | 0.0804 |  | 0.0625 |  | 0.0468 | 0.0595 | 0.0846 | 0.0628 | 0.0674 | 0.0703 |  |  |  | 0.0578 |  | 0.0712 | 0.0594
S158F | 0.0495 |  | 0.0404 | 0.0463 |  | 0.0568 |  | 0.0513 | 0.0426 | 0.0302 | 0.0507 |  |  |  |  |  | 

Variant | area with substrate CNLYFQS | area with substrate FNLYFQS | area with substrate HNLYFQS | area with substrate INLYFQS | area with substrate KNLYFQS | area with substrate LNLYFQS | area with substrate MNLYFQS | area with substrate WNLYFQS | area with substrate YNLYFQS | area with substrate PNLYFQS | area with substrate SNLYFQS | area with substrate TNLYFQS | area with substrate GNLYFQS | area with substrate NNLYFQS | area with substrate QNLYFQS | area with substrate VNLYFQS | area with substrate RNLYFQS
L211Y | 0.0701 |  |  | 0.0539 |  | 0.0485 | 0.0741 | 0.0649 |  | 0.0631 |  |  | 0.0829 |  |  | 0.0566 | 
M125I | 0.074 |  | 0.0618 |  |  |  | 0.0722 |  | 0.054 |  |  | 0.0563 |  |  |  | 0.0483 | 
M125H | 0.0495 | 0.0542 | 0.0644 | 0.0641 | 0.0609 | 0.0611 | 0.0582 | 0.0617 | 0.0668 | 0.0742 |  | 0.062 |  | 0.0557 |  | 0.079 | 0.0551
T115A | 0.0751 | 0.066 | 0.0592 | 0.0663 | 0.0638 | 0.0727 |  |  |  | 0.0594 |  | 0.1 |  | 0.08 |  |  | 0.0495
K7L | 0.0597 |  | 0.0708 |  | 0.0439 | 0.0568 | 0.066 | 0.048 | 0.0702 | 0.0567 |  | 0.0707 |  |  |  |  | 
K7G | 0.0659 | 0.0592 |  | 0.0731 | 0.0472 |  | 0.0605 | 0.0494 | 0.0447 | 0.0738 | 0.0914 | 0.0615 |  |  |  | 0.0653 | 
F38Q | 0.0824 |  | 0.0601 | 0.0621 |  | 0.0486 | 0.0559 | 0.051 | 0.0539 |  | 0.0681 | 0.0719 | 0.0638 | 0.0589 | 0.0638 | 0.0463 | 
Q75I | 0.0616 |  | 0.0592 | 0.0587 |  | 0.0573 | 0.071 | 0.0576 |  | 0.0615 |  | 0.0763 |  |  |  |  | 
P9I | 0.0613 |  | 0.0743 | 0.0509 | 0.0634 |  | 0.0689 |  |  |  | 0.0792 |  | 0.0713 | 0.0484 | 0.0671 |  | 
R50M | 0.0827 | 0.0603 | 0.0839 | 0.0627 | 0.0712 |  |  | 0.0623 | 0.0454 |  |  | 0.0677 |  |  |  | 0.0265 | 
R50I | 0.0681 |  |  | 0.066 | 0.0573 |  |  |  |  |  | 0.0707 | 0.0634 |  | 0.0587 |  |  | 
L73N | 0.0445 |  | 0.0547 | 0.0445 | 0.0231 | 0.0561 | 0.0512 | 0.0567 | 0.0533 | 0.0631 |  | 0.0563 |  | 0.0631 |  |  | 
H143F | 0.0671 |  |  |  |  | 0.0452 |  |  |  | 0.0491 |  | 0.0653 |  | 0.0682 |  |  | 
K90S | 0.0909 | 0.0635 | 0.0649 | 0.0643 | 0.0663 | 0.07 | 0.0846 | 0.0674 | 0.0453 | 0.0649 | 0.0687 | 0.0632 |  |  |  | 0.042 | 
F6D | 0.0932 | 0.0592 |  |  | 0.0685 | 0.0713 |  | 0.0527 |  | 0.0682 | 0.117 | 0.0674 | 0.0755 |  |  |  | 
D161I | 0.0478 |  | 0.0494 |  |  | 0.0493 | 0.0552 |  |  | 0.0632 |  | 0.0647 | 0.0511 |  |  |  | 
Q197A | 0.0792 |  | 0.0635 |  |  | 0.0551 | 0.0546 | 0.0494 | 0.0421 |  | 0.0523 | 0.0609 |  | 0.0612 | 0.0623 |  | 
